About 200 (0.062%) of roughly 320,000 compounds were called active. This list was built around the results that the source calls inconclusive (neither active nor inactive); the mix of calls is not that of the screen. Calls come from the whole dose curve; as a rule, active = well fitted activation curve with a large enough effect; inconclusive = small, poorly fitted or top-dose-only effect; inactive = no such curve, though single readings can be large or run the other way. Potencies of inconclusive entries are left out as doubtful fits.
test: qHTS assay for re-activators of p53 using a Luc reporter; conditions: H1299 p53-A138V BP100-luciferase reporter, luminescence, 24 h; series mostly up to 92.2 µM; activity change, positive = activation: at the top concentration; note: nearly all actives have a fitted effect of over 45% in size; for activity change, positive = activation: % of control where 0% means no effect
Summary of the method: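 p53-null H1299 cells stably carrying temperature-sensitive p53-A138V and a BP100-luciferase reporter were pinned with compounds (4-point, 1:5 series) and held 24 hrs at 37 deg C. Luminescence was read 10 min after detection reagent.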
Potency is the fitted concentration of half-maximal effect; tags give direction and shape of the fitted curve.

SMILES	activity change, positive = activation	Potency
COC(=O)[C@]12OC[C@]34C([C@@H](O)[C@@H]1O)[C@]1(C)CC(=O)C(O)=C(C)[C@@H]1C[C@H]3OC(=O)[C@H](O)[C@@H]24 (some centres undefined)	inactive: 9.34%	–
CN1CCCN(C(=O)COc2ccc(F)cc2Cl)CC1	–	inconclusive [activator, partial curve, poor fit]
CC(C)N(Cc1ccccc1)C(=O)CCS(=O)(=O)c1ccc2c(c1)oc(=O)n2C	–	inconclusive [activator, single point]
CN(C)c1ccc(NC(=O)Oc2ccccc2)cc1	–	inconclusive [activator, partial curve, poor fit]
N#Cc1cc2c(nc1SCC(=O)Nc1ccc(Cl)cc1)C1CCN2CC1	–	inconclusive [activator, partial curve, poor fit]
c1cncc(CNC2CCCCC2)c1	–	inconclusive [activator, single point]
CC(=O)Nc1ccccc1C(=O)OCc1cccc(F)c1	–	inconclusive [activator, partial curve, poor fit]
COc1cc(/C=N/NC(=O)CN2CCCCC2)ccc1OCc1ccccc1	–	inconclusive [activator, partial curve, poor fit]
CCCCOC(=O)n1c(=O)oc2ccccc21	–	inconclusive [activator, partial curve, poor fit]
O=C(c1cc2ccccn2n1)N1CCN(Cc2ccccc2)CC1	–	inconclusive [activator, partial curve, poor fit]
COc1cc(CC2C(=O)N(C)C(=O)N(C)C2=O)ccc1OCc1ccccc1	–	inconclusive [activator, full curve, poor fit]
C[n+]1c2ccccc2nc2ccc(NCCO)cc21	inactive: -17.3%	–
CC1CN=C(Nc2ccc(N(C)C)cc2)S1 (centres undefined)	–	inconclusive [activator, single point]
Cc1ccc(NC(=O)CSc2nnc([C@@H](N)Cc3c[nH]c4ccccc34)o2)c(C)c1	inactive: -7.02%	–
O=[N+]([O-])c1c2ccccc2cc2ccccc12	–	inconclusive [activator, partial curve, poor fit]
COc1cccc(N2C(=O)NC(=O)/C(=C/c3ccc4c5c(cccc35)CC4)C2=O)c1	–	inconclusive [activator, single point]
Cc1cc(NC(=O)CCC(=O)N2CCC3(CC2)OCCO3)no1	inactive: 1.95%	–
CNC(=O)c1cccn(Cc2cccc(C(F)(F)F)c2)c1=O	inactive: -2.42%	–
O=c1oc2ccccc2n1CSC1=NCCS1	–	inconclusive [activator, partial curve, poor fit]
O=C(Oc1ccc2c(c1)CCC2)N1CCOCC1	–	inconclusive [activator, partial curve, poor fit]
CC(Cc1ccccc1)[n+]1cc(/N=C(\[O-])N(C)C)on1 (centres undefined)	–	inconclusive [activator, single point]
O=C(Oc1ccc(C(=S)N2CCOCC2)cc1)c1ccc([N+](=O)[O-])cc1[N+](=O)[O-]	–	inconclusive [activator, partial curve, poor fit]

SMILES	activity change, positive = activation	Potency
CC1(C)C2([N+](=O)[O-])CNCC1([N+](=O)[O-])CNC2	inactive: -2.32%	–
O=C(NCc1ccccc1)Oc1cccc(Cl)c1	–	inconclusive [activator, partial curve, poor fit]
FC(F)(F)c1ccccc1NC1=NCCCS1	–	inconclusive [activator, partial curve, poor fit]
COc1ccc(C(=O)CSc2nnc(CNC(=O)c3ccc(S(=O)(=O)N(C)C)cc3)o2)cc1	–	inconclusive [activator, single point]
Cc1cc(C(=O)OCC(=O)Nc2cccc(F)c2)c(C)n1C1CC1	–	inconclusive [activator, single point]
O=c1[nH]c(=O)n(C2CCCCCC2)c(O)c1C=NCc1cccnc1	inactive: -1.85%	–
CN(C)/C=c1\sc2c(C#N)cc(C(=O)c3ccc(Br)cc3)n2c1=O	–	inconclusive [activator, single point]
COc1cc(C=C2C(=O)NC(=O)NC2=O)ccc1OCc1ccc([N+](=O)[O-])cc1	inactive: -2.7%	–
Clc1ccc2c(c1)C(c1ccccc1Cl)=NCc1nnc(Br)n1-2	inactive: -22.6%	–
COc1cc2[nH]c(=S)n(-c3ccccc3)c(=O)c2cc1OC	inactive: -1.38%	–
COC(=O)C1=C(c2c(C)noc2C)C[C@@H]2CC[C@H]1N2C(=O)NC1Cc2ccccc2C1	–	inconclusive [activator, single point]
CC(C)NS(=O)(=O)c1ccc2c(c1)oc(=O)n2C	–	inconclusive [activator, single point]
CN1CC(C(=O)c2ccccc2)C(C(=O)c2ccccc2)C1 (centres undefined)	–	inconclusive [activator, partial curve, poor fit]
C[C@@H]1NCCc2cc(O)c(O)cc21	inactive: -7.68%	–
CN1/C(=C\C=C2C(=O)NC(=S)NC2=O)C(C)(C)c2ccccc21	inactive: -3.12%	–
Cc1nc(Cl)sc1C(=O)Nc1ccc2ccccc2c1	–	inconclusive [activator, partial curve, poor fit]
Cc1ccc(C)c(N2CCN(S(=O)(=O)c3ccc4c(c3)oc(=O)n4C)CC2)c1	–	inconclusive [activator, single point]
CCN(CCO)c1ccc(N=Cc2c(O)n(C)c(=S)[nH]c2=O)cc1	–	inconclusive [activator, partial curve, poor fit]
CCOC(=O)C1(c2ccccc2)CCN(CCC(=O)Nc2ccc(C(=O)OC)cc2)CC1	inactive: -2.6%	–
CCC1(C)OC(c2ccccc2)=C/C(=C/C=C2C(=O)NC(=O)NC2=O)O1 (centres undefined)	inactive: 3.02%	–
Cc1ccc(CC(=O)N2CCN(C)CC2)cc1	–	inconclusive [activator, partial curve, poor fit]
O=C1C2CCN(CC2)[C@@H]1Cc1ccc2ccccc2c1O	–	inconclusive [activator, partial curve, poor fit]
